From PubChem BioAssay AID493208 (National Center for Advancing Translational Sciences (NCATS), 2011)
In all, about 44,000 compounds went through this assay and about 340 (0.77%) were called active. Not shown: some 5% with an inconclusive outcome. Calls come from the whole dose curve; as a rule, active = well fitted inhibition curve with a large enough effect; inconclusive = small, poorly fitted or top-dose-only effect; inactive = flat fitted curve, though single readings scatter. The list shows a part of the results.

Assay: Acumen qHTS Assay for Inhibitors of the mTORC1 Signaling Pathway in MEF (Tsc2-/-, p53-/-) Cells: Sytravon; note: nearly all actives have a fitted effect of over 50% in size;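 for activity change, negative = inhibition: plate controls were DMSO for no effect and rapamycin for full effect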
Details: phospho-rpS6 immunofluorescence/PI, 24 h; series mostly up to 38.3 µM; activity change, negative = inhibition: at the top concentration
In short: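 Readout is phospho-S6 Alexa 488 signal normalized to PI per well, reported as % active cells with thresholds set from rapamycin (7.5 nM) and DMSO controls. Cells: Tsc2-/-, p53-/- MEFs, 24 hrs compound at 37 C; PI cell number serves as viability.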
Potency is the fitted concentration of half-maximal effect.

| SMILES | activity change, negative = inhibition | Potency |
| --- | --- | --- |
| CCOc1cc(C(c2c(C)[nH]n(-c3ccccc3)c2=O)c2c(C)[nH]n(-c3ccccc3)c2=O)ccc1O | inactive: 6.79% |  |
| Cc1[nH]c2ccc(C(=O)N3CCN(c4ccccc4F)CC3)cc2c1C | inactive: -4.32% |  |
| CCN(CC)S(=O)(=O)c1ccc(NC(=O)Cn2ncc3c([nH]c4ccccc43)c2=O)cc1 | inactive: -10.2% |  |
| CC(Oc1ccccc1)C(=O)Nc1ccc(C(=O)OCc2cc(=O)n3nc(C(C)C)sc3n2)cc1 (stereo not given) | inactive: -0.715% |  |
| CCOc1ccc(/C=C/c2nc(C#N)c(N3CCN(CC)CC3)o2)cc1 | inactive: -0.734% |  |
| O=C(NCCc1ccc(F)cc1)C(=O)NCC(c1ccco1)S(=O)(=O)c1ccccc1 (stereo not given) | inactive: -7.11% |  |
| Cc1cc(C)cc(OCC(=O)Nc2nc(-c3ccc(F)cc3)ns2)c1 | inactive: -4.36% |  |
| Cc1ccccc1NC(=O)CSc1c(C(C)C)cnc2c1c(=O)n(C)c(=O)n2C | inactive: 5.27% |  |
| COC(=O)c1cc(NS(=O)(=O)c2ccc3c(c2)OCCO3)ccc1Cl | inactive: -3.92% |  |
| CCOc1ccccc1NC(=O)CSc1nc2ccccc2nc1N1CCOCC1 | inactive: -9.84% |  |
| O=C(c1ccc(C(F)(F)F)cc1)N1CCC(c2noc(-c3ccc(S(=O)(=O)N4CCCC4)cc3)n2)CC1 | inactive: -5.2% |  |
| NC(=O)c1ccccc1NC(=O)C1CCCN(c2ncnc3onc(-c4ccc(F)cc4)c23)C1 (stereo not given) | inactive: 3.17% |  |
| O=C(c1cccs1)N(Cc1cccnc1)c1nc2c(Cl)cccc2s1 | inactive: -1.75% |  |
| O=C(CCc1nc2cccnc2n1Cc1cccs1)Nc1cccc(C(F)(F)F)c1 | inactive: 0.534% |  |
| O=C(NC1CCCC1)c1ccc2c(c1)N(Cc1ccc(C(F)(F)F)cc1)C(=O)c1ccccc1S2 | inactive: -8.67% |  |
| Cc1ccccc1Cn1c(=O)n(Cc2ccc3c(c2)OCO3)c(=O)c2oc3ccccc3c21 | inactive: -2.69% |  |
| COc1ccc(-c2noc(CCC(=O)N(C)c3ccccc3C)n2)cc1 | inactive: -4.49% |  |
| COCCCNS(=O)(=O)c1cc(-c2onc(C)c2C)ccc1OC | inactive: 5.35% |  |
| COc1ccc(N2CCN(C(=O)CSc3n[nH]c(-c4ccccc4)n3)CC2)cc1 | inactive: 2.5% |  |
| CN(C)C(=O)c1ccc(NC(=O)Cn2nnnc2-c2ccccc2F)cc1 | inactive: -29.4% |  |
| COc1ccc(Nc2c3c(nc4ccc(NC(=O)/C=C/c5cc(OC)c(OC)c(OC)c5)cc24)CCCC3)cc1OC |  | active: 2.07 µM |
| O=C(Nc1ccc(-c2nc3cc(NC(=O)c4ccccc4Cl)ccc3o2)cc1)c1ccccc1Cl | inactive: 0.0807% |  |
| COc1ccccc1CNC(=O)Cc1c(C)c2c(cc(C)c3c(C)coc32)oc1=O | inactive: -10.2% |  |
| CN(C)c1ccc(CN(CC2CCCO2)C(=O)COc2ccccc2Cl)cc1 (stereo not given) | inactive: 3.38% |  |

| SMILES | activity change, negative = inhibition | Potency |
| --- | --- | --- |
| COc1ccc(N(CC(=O)NCc2ccc(F)cc2)S(=O)(=O)c2c(C)noc2C)cc1 | inactive: 0.638% |  |
| Cc1ccccc1C(=O)N(Cc1ccc(N(C)C)cc1)Cc1ccco1 | inactive: -12.4% |  |
| COc1ccc(OC)c(-c2nc3c(C#N)c[nH]n3c2NC2CCCCC2)c1 | inactive: -1.89% |  |
| CCCN(c1ccc(C(C)C)cc1)S(=O)(=O)c1ccc2c(c1)CCN2C(=O)CC | inactive: -7.33% |  |
| CN(C)c1ccc(CNC(=O)C2CCCN(S(=O)(=O)c3ccc4c(c3)oc(=O)n4C)C2)cc1 (stereo not given) | inactive: 0.49% |  |
| CCc1nonc1NC(=O)c1oc2ccc(F)cc2c1C | inactive: -2.08% |  |
| Cc1cccc(OCC(=O)NC(Cc2c[nH]c3ccccc23)C(=O)O)c1C (stereo not given) | inactive: 2.85% |  |
| COc1ccc(CCNC(=O)C(=O)NCC(c2ccc3c(c2)OCO3)N2CCOCC2)cc1 (stereo not given) | inactive: -10.5% |  |
| CC1=C(C(=O)Nc2ccc(Cl)cc2)C(c2ccccc2C)n2ncc(C(=O)Nc3ccc(C)cc3)c2N1 (stereo not given) | inactive: -18.7% |  |
| O=C(Nc1cc(F)ccc1F)N1CCC(CN2CCOCC2)CC1 | inactive: -9.66% |  |
| COc1ccc(-n2cc(-c3ccccc3)c3c(NC4CCCCC4)ncnc32)cc1 | inactive: 4.16% |  |
| COc1ccc(S(=O)(=O)NCCc2sc(C)nc2C)cc1F | inactive: -13.9% |  |
| Cc1ccc2c(CC(=O)Nc3cccc(Cl)c3C)coc2c1 | inactive: -0.655% |  |
| Cc1cccc(OCCCCn2c(C3CC(=O)N(c4ccccc4Cl)C3)nc3ccccc32)c1 (stereo not given) | inactive: -4.96% |  |
| Cc1ccc(-c2nc3cc(NC(=O)c4cc5ccccc5o4)ccc3o2)cc1 | inactive: 9.94% |  |
| CCN1C(=O)c2ccccc2Sc2ccc(NC(=O)COc3ccc(Cl)cc3)cc21 | inactive: 4.2% |  |
| CCOc1ccc(-n2c(SCC(=O)Nc3cccc(Cl)c3)nc3c(oc4ccccc43)c2=O)cc1 | inactive: 0.237% |  |
| COc1ccc(C(=O)CC2(O)C(=O)Nc3c(C)cccc32)c(OC)c1OC (stereo not given) | inactive: -18.5% |  |
| CN1CCN(c2ncc3c(n2)CCN(Cc2cc(Br)cs2)C3)CC1 | inactive: 0% |  |
| CCOc1ccc(-c2cnc(NCc3ccc(C(F)(F)F)cc3)n2C)cc1 |  | active: 18.5 µM |
| Cc1cccc(N2CCN(C(=O)c3cc4c(=O)oc5ccccc5c4s3)CC2C)c1 (stereo not given) | inactive: 16% |  |
| CC(C)CN(CC(C)C)C(=O)C1CCCN(S(=O)(=O)c2ccc3c(c2)oc(=O)n3C)C1 (stereo not given) | inactive: -1.51% |  |
| COc1cccc(NC(=O)c2nn(-c3ccc(C)cc3)c(=O)n(C)c2=O)c1 | inactive: -10.3% |  |
| Cc1cc(C)c2nc(N3CCCC(C(=O)NCc4cccc(Cl)c4)C3)sc2c1 (stereo not given) | inactive: -0.294% |  |

| SMILES | activity change, negative = inhibition | Potency |
| --- | --- | --- |
| COc1ccc(CNS(=O)(=O)c2cc3c(cc2C)n(C)c(=O)c(=O)n3C)cc1 | inactive: -15.2% |  |
| Cc1ccc(NS(=O)(=O)c2ccc3c(c2)NC(=O)C(C)C(=O)N3)cc1F (stereo not given) | inactive: 1.69% |  |
| Cc1ccc(NC(=O)CSc2cc(=O)n(C)c3ccc(Cl)cc23)c(Br)c1 | inactive: -2.68% |  |
| CC(NC(=O)c1ccc2c(c1)N(Cc1cccc(F)c1)C(=O)c1ccccc1S2)c1ccccc1 (stereo not given) | inactive: -12.2% |  |
| CCCCN(C)CCNC(=O)c1c(C)oc2ncnc(N3CCOCC3)c12 | inactive: -5.9% |  |
| Cc1ccc(NC(=O)c2cnn(-c3ccc(C)c(C)c3)c2C2CCN(C(=O)OC(C)(C)C)CC2)c(C)c1 | inactive: -2.51% |  |
| Cc1cccc(NC(=O)Cn2c(=O)n(CCC(C)C)c(=O)c3cccnc32)c1 | inactive: 0.544% |  |
| Cc1ccc(-n2nc(C(=O)N3CCN(c4cccc(C(F)(F)F)c4)CC3)c(=O)n(C)c2=O)cc1 | inactive: -6.41% |  |
| COc1cc(NC(=O)CN2C(=O)C(c3ccc(C)cc3)=NC23CCCCC3)cc(OC)c1 | inactive: -3.92% |  |
| Cc1oc2ccc(O)c(CN3CCOCC3)c2c1C(=O)Nc1ccccc1 | inactive: -1.19% |  |
| Cc1ccc(CNc2ccc(-c3nc(C(C)C)no3)cc2[N+](=O)[O-])cc1 | inactive: 1.81% |  |
| Cc1ccc(-n2c(=O)c3c(c4cc(C)ccc4n3C)n(CC(=O)Nc3c(C)cccc3C)c2=O)cc1 | inactive: -6.15% |  |
| O=C(CCSCCc1ccccn1)Nc1cc(F)ccc1F | inactive: 5.33% |  |
| CCC(CC)C(=O)Nc1cc(-c2cccc(C)c2)nn1-c1ccccc1 | inactive: 7.15% |  |
| COc1cccc(CNC(=O)C2CCN(C(=O)N3CCOc4ccc(Cl)cc43)CC2)c1OC | inactive: -21.9% |  |
| COc1ccc(Cl)cc1NC(=O)c1cc(C)nc2c1c(C)nn2-c1ccccc1 | inactive: -3.31% |  |
| O=c1c2sc3ccccc3c2n(Cc2ccccc2F)c(=O)n1Cc1ccccc1 | inactive: -17.7% |  |
| Cc1ccc(Cn2c(=O)n(Cc3ccco3)c(=O)c3sc4ccccc4c32)cc1 | inactive: 0.556% |  |
| O=c1c2cnn(-c3ccc(Cl)cc3)c2ncn1Cc1ccc(Cl)cc1Cl | inactive: -2.62% |  |
| Cc1nc2c(C(=O)NCc3ccccc3)cnn2c(C)c1Cc1ccc(F)cc1 | inactive: 9.48% |  |
| Cc1cccc(C(=O)Nc2cc3c(cc2N2CCCCC2)n(C)c(=O)c(=O)n3C)c1 | inactive: -0.156% |  |
| CC(=O)N1CCC2(CC1)OC(=O)C(C)=C2C(=O)Nc1cccc(Cl)c1C | inactive: 0.677% |  |
| CCCCC(=O)Nc1cc(C)c(O)c(-c2nc3ncccc3o2)c1 | inactive: 7.16% |  |
| O=C(CC1N=C2c3ccccc3N=C(SCc3ccccc3F)N2C1=O)NCCc1ccccc1 (stereo not given) | inactive: -3.16% |  |

| SMILES | activity change, negative = inhibition | Potency |
| --- | --- | --- |
| Cc1ccc(CCNC(=O)CCN2N=C(c3ccc(C)cc3)CCC2=O)cc1 | inactive: -6.49% |  |
| CCOc1ccc(C(=O)Nc2cc(NC(=O)c3ccco3)ccc2OC)cc1Br | inactive: -7.79% |  |
| Cc1ccc(Cl)cc1Nc1nc2ccccc2c2nncn12 | inactive: -18.7% |  |
| Cc1ccsc1CCN1C(=O)N(c2ccccc2)C(=O)C1CC(=O)Nc1ccc(F)cc1 (stereo not given) | inactive: -2.55% |  |
| COc1ccc(CCC(=O)NCc2ccc3c(c2)CCN3C(=O)c2ccc(F)cc2)cc1 | inactive: 1.38% |  |
| COc1ccc(-c2nc3cc(NC(=O)Cc4ccc(Cl)cc4)ccc3o2)cc1OC |  | active: 4.14 µM |
| CCOC(=O)c1ccc(NC(=O)Cn2nc(SC)c(S(=O)(=O)c3ccc(Cl)cc3)c2N)cc1 | inactive: -3.26% |  |
| CC(C)CC(=O)Nc1nnc(S(=O)(=O)N2CCCCCC2)s1 | inactive: -13.8% |  |
| Cc1cccc(C)c1NC(=O)c1ccc2c(c1)N(Cc1cccc(Cl)c1)C(=O)c1ccccc1S2=O (stereo not given) | inactive: -14.3% |  |
| Cc1ccc(C(=O)N(Cc2sccc2C)C2CCS(=O)(=O)C2)cc1 (stereo not given) | inactive: -2.64% |  |
| COc1ccc(OC)c(-n2nnc3c(sc4nc(C)c(Br)c(C)c43)c2=O)c1 | inactive: 0.814% |  |
| COc1ccccc1NC(=O)N1c2ccccc2Sc2ccccc21 | inactive: -25.1% |  |
| CCOc1cc(Br)cc(C2NC(=O)c3c(sc4c3CCN(C)C4)N2)c1O (stereo not given) | inactive: -0.389% |  |
| COCCCNC(=O)CCCn1c(SCC(=O)c2ccc(F)cc2)nc2c(sc3ccccc32)c1=O | inactive: 5.07% |  |
| COc1ccc(CNC(=O)CSc2ncc3c(n2)-c2ccc(Cl)cc2N(Cc2ccc(F)cc2)S3(=O)=O)cc1OC | inactive: -16.1% |  |
| O=C(CSc1c2c(nc3ccccc13)CCC2)Nc1ccc(F)cc1 | inactive: -22.3% |  |
| COc1ccc(Cn2c(C(=O)O)c(CNCc3ccco3)c3ccc(OC)cc32)cc1 | inactive: -0.0737% |  |
| COc1ccc(-n2cnc3cc(C(=O)NC4CCCC4)ccc32)cc1 | inactive: -10.5% |  |
| CCOC(=O)c1ccc(NC(=O)CSc2nnc3c4ccccc4n(CC)c3n2)cc1 | inactive: -1.25% |  |
| CN(C)c1ccc(CNC(=O)c2ccc(Cn3c(=O)c4cccn4c4cccnc43)cc2)cc1 | inactive: -2.72% |  |
| CC(C)(C)c1ccc(C(=O)NCC(c2ccco2)S(=O)(=O)c2ccc(F)cc2)cc1 (stereo not given) | inactive: -5.58% |  |
| CCc1ccc2ncc(C(=O)c3ccc(C)c(C)c3)c(N3CCC(C(N)=O)CC3)c2c1 | inactive: -1.23% |  |
| COc1ccc(C2=Nc3ccc(F)cc3NC(c3cccc(C(F)(F)F)c3)=N2)cc1 | inactive: 3.65% |  |
